# Experimental data taken from the supplement of paper PMC8948288.
# Shown are siRNA guide strands that differ only in the seed, positions 2 to 7.
# Experiments:
# [1] = system: GL261; test: cell viability relative to siNT1 (ATP content); H4 human neuroglioma and GL261 mouse glioma; higher = less toxic; conditions: siRNA concentration 25 nM; 96 h; mouse
# [2] = system: H4; test: as above; conditions: siRNA concentration 10 nM; 96 h; human
# 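Also: cells reverse transfected with siRNA duplexes via lipid reagent, ATP read by luminescence, triplicate wells, values scaled to mean viability with non-targeting control siNT1.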
Sequence,cell viability [1],cell viability [2]
UGGUCAGACAUGUAAACCA,21.8%,49.5%
UGGUCAUACAUGUAAACCA,17.1%,69.5%
UGGUCCAACAUGUAAACCA,54.4%,39.6%
UGGUCCCACAUGUAAACCA,8.28%,8.82%
UGGUCCGACAUGUAAACCA,8.62%,38.8%
UGGUCCUACAUGUAAACCA,14%,22.8%
UGGUCGAACAUGUAAACCA,38.9%,57.7%
UGGUCGCACAUGUAAACCA,16%,38.2%
UGGUCGGACAUGUAAACCA,10.7%,25.3%
UGGUCGUACAUGUAAACCA,12.9%,51.3%
UGGUCUAACAUGUAAACCA,59.4%,77.9%
UGGUCUCACAUGUAAACCA,38.8%,57.2%
UGGUCUGACAUGUAAACCA,53.6%,33.3%
UGGUCUUACAUGUAAACCA,25.6%,45%
UGGUGAAACAUGUAAACCA,40.7%,53.1%
UGGUGACACAUGUAAACCA,12.4%,21.8%
UGGUGAGACAUGUAAACCA,21.9%,15.8%
UGGUGAUACAUGUAAACCA,32.5%,40%
UGGUGCAACAUGUAAACCA,29.5%,34.3%
UGGUGCCACAUGUAAACCA,8%,7.45%
UGGUGCGACAUGUAAACCA,24.8%,36.2%
UGGUGCUACAUGUAAACCA,15.9%,21%
UGGUGGAACAUGUAAACCA,21%,16.6%
UGGUGGCACAUGUAAACCA,42.7%,17.2%

Sequence,cell viability [1],cell viability [2]
UGGUGGGACAUGUAAACCA,7.18%,6.26%
UGGUGGUACAUGUAAACCA,14.1%,5.7%
UGGUGUAACAUGUAAACCA,45.8%,64.6%
UGGUGUCACAUGUAAACCA,20.5%,38%
UGGUGUGACAUGUAAACCA,37.2%,64.2%
UGGUGUUACAUGUAAACCA,35.4%,36%
UGGUUAAACAUGUAAACCA,79.1%,121%
UGGUUACACAUGUAAACCA,71.7%,114%
UGGUUAGACAUGUAAACCA,39.8%,89.5%
UGGUUAUACAUGUAAACCA,76.5%,97%
UGGUUCAACAUGUAAACCA,40.5%,49.4%
UGGUUCCACAUGUAAACCA,12.2%,21.1%
UGGUUCGACAUGUAAACCA,34.4%,79.9%
UGGUUCUACAUGUAAACCA,38.3%,45.4%
UGGUUGAACAUGUAAACCA,40.6%,77.3%
UGGUUGCACAUGUAAACCA,22.2%,35.4%
UGGUUGGACAUGUAAACCA,19.2%,25.9%
UGGUUGUACAUGUAAACCA,63.6%,99.6%
UGGUUUAACAUGUAAACCA,90.6%,121%
UGGUUUCACAUGUAAACCA,72.4%,95.9%
UGGUUUGACAUGUAAACCA,68.9%,101%
UGGUUUUACAUGUAAACCA,73.2%,119%
UGUAAAAACAUGUAAACCA,69.8%,94%
UGUAAACACAUGUAAACCA,72%,86.4%

Sequence,cell viability [1],cell viability [2]
UGUAAAGACAUGUAAACCA,67.8%,84.6%
UGUAAAUACAUGUAAACCA,56.4%,100%
UGUAACAACAUGUAAACCA,62.2%,101%
UGUAACCACAUGUAAACCA,26.4%,41.3%
UGUAACGACAUGUAAACCA,73.2%,83%
UGUAACUACAUGUAAACCA,43.5%,93.6%
UGUAAGAACAUGUAAACCA,57.4%,70%
UGUAAGCACAUGUAAACCA,41.5%,47.9%
UGUAAGGACAUGUAAACCA,22.7%,52.2%
UGUAAGUACAUGUAAACCA,38.8%,63.2%
UGUAAUAACAUGUAAACCA,64.3%,79.3%
UGUAAUCACAUGUAAACCA,31%,38.8%
UGUAAUGACAUGUAAACCA,45.6%,74.6%
UGUAAUUACAUGUAAACCA,50.4%,55.4%
UGUACAAACAUGUAAACCA,60.7%,90.8%
UGUACACACAUGUAAACCA,41.1%,59.9%
UGUACAGACAUGUAAACCA,58.7%,102%
UGUACAUACAUGUAAACCA,58.8%,113%
UGUACCAACAUGUAAACCA,52.6%,87.9%
UGUACCCACAUGUAAACCA,13.3%,33.5%
UGUACCGACAUGUAAACCA,54.5%,90.5%
UGUACCUACAUGUAAACCA,26.5%,30.6%
UGUACGAACAUGUAAACCA,68.3%,101%
UGUACGCACAUGUAAACCA,60.5%,69.5%

Sequence,cell viability [1],cell viability [2]
UGUACGGACAUGUAAACCA,64%,64.8%
UGUACGUACAUGUAAACCA,60.3%,108%
UGUACUAACAUGUAAACCA,70.1%,101%
UGUACUCACAUGUAAACCA,45.6%,64.8%
UGUACUGACAUGUAAACCA,63.9%,79.1%
UGUACUUACAUGUAAACCA,37.7%,75%
UGUAGAAACAUGUAAACCA,78.9%,84.5%
UGUAGACACAUGUAAACCA,34%,60.9%
UGUAGAGACAUGUAAACCA,61.8%,93.9%
UGUAGAUACAUGUAAACCA,38.1%,70.6%
UGUAGCAACAUGUAAACCA,48.7%,92.5%
UGUAGCCACAUGUAAACCA,9.03%,13.7%
UGUAGCGACAUGUAAACCA,49.5%,77.1%
UGUAGCUACAUGUAAACCA,24.5%,38.9%
UGUAGGAACAUGUAAACCA,39.9%,83.7%
UGUAGGCACAUGUAAACCA,9.17%,17.7%
UGUAGGGACAUGUAAACCA,19.4%,51.2%
UGUAGGUACAUGUAAACCA,15.2%,32.6%
UGUAGUAACAUGUAAACCA,52%,71.9%
UGUAGUCACAUGUAAACCA,18.9%,23.7%
UGUAGUGACAUGUAAACCA,42.2%,93.2%
UGUAGUUACAUGUAAACCA,22.8%,28.4%
UGUAUAAACAUGUAAACCA,74.2%,79.9%
UGUAUACACAUGUAAACCA,68.9%,92.7%

Sequence,cell viability [1],cell viability [2]
UGUAUAGACAUGUAAACCA,59.9%,106%
UGUAUAUACAUGUAAACCA,65.8%,66%
UGUAUCAACAUGUAAACCA,58.6%,104%
UGUAUCCACAUGUAAACCA,21.5%,30.9%
UGUAUCGACAUGUAAACCA,64%,81.3%
UGUAUCUACAUGUAAACCA,41.4%,44.9%
UGUAUGAACAUGUAAACCA,61.2%,85.6%
UGUAUGCACAUGUAAACCA,46.8%,32.6%
UGUAUGGACAUGUAAACCA,54.9%,39%
UGUAUGUACAUGUAAACCA,25.1%,44.2%
UGUAUUAACAUGUAAACCA,70.9%,89.3%
UGUAUUCACAUGUAAACCA,35.1%,38.9%
UGUAUUGACAUGUAAACCA,66.4%,79.2%
UGUAUUUACAUGUAAACCA,61.9%,50.6%
UGUCAAAACAUGUAAACCA,46%,81.1%
UGUCAACACAUGUAAACCA,11%,72.6%
UGUCAAGACAUGUAAACCA,55.8%,95%
UGUCAAUACAUGUAAACCA,40.8%,104%
UGUCACAACAUGUAAACCA,15.7%,50.9%
UGUCACCACAUGUAAACCA,3.74%,42.4%
UGUCACGACAUGUAAACCA,18.6%,58.5%
UGUCACUACAUGUAAACCA,16.5%,55%
